A lower IC50 marks a more sensitive line; where the fit passes the top or lowest dose, that dose stands as a limit. The AUC spans the tested range (256-fold, ending at the top dose) of the same fit; the more sensitive the line, the further below 1. For part of these data: An inferred top dose comes from the curve model; the source does not state it.
Tests used:
Test in all cases: Viability of human cancer cell lines after 72 h of drug (GDSC screen)
PF-4708671 = compound: CCc1cncnc1N1CCN(Cc2nc3ccc(C(F)(F)F)cc3[nH]2)CC1 [PF-4708671]; settings: top dose 10 µM; top dose inferred
Protocol: (§1)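 Human cancer cell lines in 384-well plates, medium with 10% serum, drug for 72 h over a 256-fold dose range (nine 2-fold or five 4-fold steps up to the top dose). Adherent lines were fixed and stained with the nucleic acid dye Syto60, suspension lines read with resazurin; signal relative to control wells, capped at 0 and 100%. One two-parameter sigmoid per drug and line, fitted in a mixed model over all curves with the slope shared within a line.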

I-BET-762 = compound: CCNC(=O)C[C@@H]1N=C(c2ccc(Cl)cc2)c2cc(OC)ccc2-n2c(C)nnc21 [I-BET-762]; settings: top dose 20 µM; top dose inferred
Protocol: as §1

KIN001-244 = compound: O=C(NC(COc1ccc2[nH]c(=O)[nH]c2c1)c1ccccc1)c1cccn(Cc2ccc(F)c(F)c2)c1=O [KIN001-244]; settings: top dose 20 µM; top dose inferred
Protocol: as §1

HG-6-64-1 = compound: CCN1CCN(Cc2ccc(NC(=O)c3ccc(C)c(/C=C/c4cnc5[nH]ccc5c4OC)c3)cc2C(F)(F)F)CC1 [HG-6-64-1]; settings: top dose 5.12 µM; top dose inferred
Protocol: as §1

AV-951 = compound: COc1cc2nccc(Oc3ccc(NC(=O)Nc4cc(C)on4)c(Cl)c3)c2cc1OC [AV-951]; settings: top dose 0.128 µM; top dose inferred
Protocol: as §1

Trametinib = compound: CC(=O)Nc1cccc(-n2c(=O)n(C3CC3)c(=O)c3c(Nc4ccc(I)cc4F)n(C)c(=O)c(C)c32)c1 [Trametinib]; settings: top dose 1 µM
Protocol: as §1

Cell Line	AUC (PF-4708671)	IC50 (PF-4708671) [µM]	AUC (I-BET-762)	IC50 (I-BET-762) [µM]	AUC (KIN001-244)	IC50 (KIN001-244) [µM]	AUC (HG-6-64-1)	IC50 (HG-6-64-1) [µM]	AUC (AV-951)	IC50 (AV-951) [µM]	AUC (Trametinib)	IC50 (Trametinib) [µM]
SNU-182 (liver, adherent)	0.986	> 10	0.828	13.1	0.848	15.9	0.772	2.06	0.985	> 0.128	0.648	0.164
SNU-387 (liver, adherent)	0.984	> 10	0.783	9.72	0.667	3.9	0.663	0.973	0.984	> 0.128	0.623	0.143
SNU-423 (liver, adherent)	0.983	> 10	0.941	> 20	0.801	11.8	0.682	1.13	0.969	> 0.128	0.545	0.0845
SNU-449 (liver, adherent)	0.966	> 10	0.978	> 20	0.841	15.8	0.617	0.694	0.986	> 0.128	0.749	0.35
SNU-C2B (large intestine, adherent)	0.925	> 10	0.783	11.4	0.93	> 20	0.875	> 5.12	0.976	> 0.128	0.728	0.349
SU8686 (pancreas, adherent)	0.962	> 10	0.957	> 20	0.954	> 20	0.884	> 5.12	0.981	> 0.128	0.939	> 1
SU-DHL-5 (B-cell lymphoma, suspension)	0.971	> 10	0.408	0.746	0.844	9.4	0.546	0.413	0.994	> 0.128	0.132	0.00705
SU-DHL-10 (B-cell lymphoma, suspension)	0.991	> 10	0.415	0.778	0.866	9.89	0.308	0.11	0.998	> 0.128	0.997	> 1
SUIT-2 (pancreas, adherent)	0.942	> 10	0.543	1.65	0.737	6.19	0.593	0.583	0.984	> 0.128	0.239	0.0106
SW13 (adrenal gland, adherent)	0.875	> 10	0.988	> 20	0.968	> 20	0.748	1.67	0.987	> 0.128	0.727	0.278
SW48 (large intestine, adherent)	0.983	> 10	0.878	> 20	0.874	19.4	0.84	3.51	0.987	> 0.128	0.462	0.0493
SW156 (kidney, adherent)	0.883	> 10	0.986	> 20	0.894	> 20	0.726	1.53	0.984	> 0.128	0.884	> 1
SW620 (large intestine, adherent)	0.981	> 10	0.95	> 20	0.921	> 20	0.858	3.44	0.99	> 0.128	0.236	0.0121
SW626 (ovary, adherent)	0.981	> 10	0.983	> 20	0.907	> 20	0.761	2.14	0.964	> 0.128	0.234	0.00894
SW756 (cervix, adherent)	0.952	> 10	0.983	> 20	0.959	> 20	0.941	> 5.12	0.984	> 0.128	0.569	0.1
SW837 (large intestine, adherent)	0.941	> 10	0.879	> 20	0.916	> 20	0.945	> 5.12	0.983	> 0.128	0.615	0.143
SW900 (lung squamous cell carcinoma, adherent)	0.953	> 10	0.928	> 20	0.942	> 20	0.834	4.1	0.984	> 0.128	0.492	0.0592
SW948 (large intestine, adherent)	0.982	> 10	0.815	18.2	0.91	> 20	0.921	> 5.12	0.982	> 0.128	0.889	> 1
SW982 (soft tissue, adherent)	0.948	> 10	0.819	11.9	0.863	18.1	0.534	0.399	0.977	> 0.128	0.5	0.0623
SW1088 (glioma, adherent)	0.96	> 10	0.972	> 20	0.933	> 20	0.727	1.74	0.942	> 0.128	0.728	0.343
SW1271 (small cell lung carcinoma, adherent)	0.975	> 10	0.798	11.2	0.754	7.68	0.689	1.18	0.984	> 0.128	0.269	0.0123
SW1417 (large intestine, adherent)	0.979	> 10	0.914	> 20	0.93	> 20	0.832	4.08	0.984	> 0.128	0.863	> 1

Cell Line	AUC (PF-4708671)	IC50 (PF-4708671) [µM]	AUC (I-BET-762)	IC50 (I-BET-762) [µM]	AUC (KIN001-244)	IC50 (KIN001-244) [µM]	AUC (HG-6-64-1)	IC50 (HG-6-64-1) [µM]	AUC (AV-951)	IC50 (AV-951) [µM]	AUC (Trametinib)	IC50 (Trametinib) [µM]
SW1463 (large intestine, adherent)	0.959	> 10	0.977	> 20	0.976	> 20	0.87	> 5.12	0.977	> 0.128	0.397	0.0267
SW1573 (lung adenocarcinoma, adherent)	0.835	> 10	0.981	> 20	0.974	> 20	0.649	0.958	0.98	> 0.128	0.714	0.315
SW1710 (bladder, adherent)	0.964	> 10	0.954	> 20	0.778	8.33	0.49	0.3	0.986	> 0.128	0.447	0.0445
SW1783 (glioma, adherent)	0.971	> 10	0.991	> 20	0.955	> 20	0.732	1.35	0.986	> 0.128	0.972	> 1
SW1990 (pancreas, adherent)	0.985	> 10	0.985	> 20	0.953	> 20	0.865	> 5.12	0.979	> 0.128	0.637	0.16
Saos-2 (osteosarcoma, adherent)	0.967	> 10	0.981	> 20	0.981	> 20	0.681	1.28	0.981	> 0.128	0.946	> 1
T84 (large intestine, adherent)	0.938	> 10	0.987	> 20	0.924	> 20	0.945	> 5.12	0.985	> 0.128	0.77	0.385
T98G (glioma, adherent)	0.974	> 10	0.985	> 20	0.907	> 20	0.658	0.844	0.984	> 0.128	0.921	> 1
T-T (oesophagus, adherent)	0.965	> 10	0.959	> 20	0.853	15.5	0.593	0.575	0.987	> 0.128	0.824	0.592
TCCSUP (bladder, adherent)	0.949	> 10	0.984	> 20	0.939	> 20	0.489	0.298	0.983	> 0.128	0.868	> 1
TE-11 (oesophagus, adherent)	0.983	> 10	0.988	> 20	0.966	> 20	0.904	> 5.12	0.99	> 0.128	0.895	> 1
TGBC11TKB (stomach, adherent)	0.943	> 10	0.979	> 20	0.909	> 20	0.992	> 5.12	0.991	> 0.128	0.8	0.418
TGBC24TKB (biliary tract, adherent)	0.984	> 10	0.928	> 20	0.963	> 20	0.841	3.24	0.99	> 0.128	0.744	0.296
TMK-1 (stomach, adherent)	0.976	> 10	0.984	> 20	0.949	> 20	0.849	4.18	0.986	> 0.128	0.57	0.098
TOV-21G (ovary, adherent)	0.935	> 10	0.975	> 20	0.985	> 20	0.794	2.59	0.937	> 0.128	0.577	0.103
TOV-112D (ovary, adherent)	0.908	> 10	0.785	8.65	0.87	18.9	0.564	0.478	0.978	> 0.128	0.744	0.315
TT2609-C02 (thyroid, adherent)	0.982	> 10	0.883	> 20	0.966	> 20	0.364	0.131	0.984	> 0.128	0.83	0.683
TT (thyroid, adherent)	0.951	> 10	0.98	> 20	0.965	> 20	0.867	> 5.12	0.982	> 0.128	0.885	> 1
TYK-nu (ovary, adherent)	0.921	> 10	0.87	> 20	0.879	> 20	0.935	> 5.12	0.975	> 0.128	0.287	0.0149
U031 (kidney, adherent)	0.923	> 10	0.943	> 20	0.974	> 20	0.766	1.95	0.981	> 0.128	0.466	0.0502
U251 (glioma, adherent)	0.941	> 10	0.908	> 20	0.749	6.22	0.728	1.37	0.986	> 0.128	0.688	0.204
U-118-MG (glioma, adherent)	0.968	> 10	0.968	> 20	0.87	> 20	0.916	> 5.12	0.97	> 0.128	0.779	0.475
